The results in this text go back to PubChem BioAssay (NCATS).

In general, AC50 refers to the midpoint of the concentration-response curve, whichever way the signal moves.

The list shows a part of the results. Further columns of the screen follow, without active or inactive calls. For some of these results: Most of these compounds were active or inconclusive in the main read-out, so they are no random draw. Words in brackets tell the shape of the fitted curve; partial curves, single points and poor fits give uncertain potencies.

Experiment [1] is described as follows: qHTS drug screen for cell cycle checkpoint inhibitors in PARPi-resistant BRCA-mutant ovarian cancer cell lines. (AID 1963452). Conditions: PEO1/OlaR viability, CellTiter-Glo luminescence, 96 h. The method in brief: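 PEO1, PEO4 and PEO1/OlaR ovarian cancer cells, 600 per well, exposed 96 h at 37C to a dilution series. Viability read by CellTiter-Glo luminescence, normalized to DMSO and empty wells; activity summarized as Z-AUC.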

Experiment [2] in a line: qHTS for identification of novel therapeutic agents for treatment of microphthalmiaassociated transcription factor (MiT) renal cell carcinoma (RCC) (AID 1963991).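 On z-score: curves scaled with 100% = DMSO viability and 0% = empty wells.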 As to conditions: CellTiter-Glo, 48 h; for z-score: stronger effect = lower value. The method in brief:
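UOK109/UOK124/UOK145 (TFE3 fusions, three partners); 500 cells/well; MIPE v4.0, 1912 cpds, 11 conc.; 48 h, 37 C; CellTiter-Glo, 15 min RT; lum. Norm.: DMSO 100%, empty 0%.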

Setting [3] is: measured here: PEO1 parental viability.
[4] abbreviates: TFE3-RCC UOK109 viability, measured here: UOK109 Z-AUC.
The mark [5] stands for this setting: TFE3-RCC viability, measured here: UOK124 Z-AUC.
Setting [6] is: TFE3-RCC viability, measured here: UOK124 cell viability.
The mark [7] stands for this setting: TFE3-RCC viability, measured here: UOK145 Z-AUC.
Setting [8] is: TFE3-RCC viability, measured here: UOK145 cell viability.
Tags describe the fitted curve by direction and shape.

As to `COc1cc(C(C)C)c2c(c1)S(=O)(=O)N(COc1cc(=O)n3cccc(OCCN4CCCCC4)c3n1)C2=O`, the AC50 was 24.5 µM [falling, single point] in experiment [1] (setting [3]); 15.5 µM [falling, single point] in experiment [1] (measured here: PEO4 viability); 33.2 µM [falling, single point] in experiment [2] (setting [6]); 16.6 µM [falling, partial curve] in experiment [2] (setting [8]). The z-score in experiment [2] (setting [4]) was -0.0325; in experiment [2] (setting [5]), 0.374; in experiment [2] (setting [7]), -0.429.

Take `COc1ccc2c(Oc3ccc(NC(=O)c4c(C)n(CC(C)(C)O)n(-c5ccccc5)c4=O)nc3)ccnc2c1`: the half-maximal activity concentration (AC50) in experiment [1] (setting [3]) was 21.9 µM [falling, single point]; in experiment [1] (measured here: PEO4 viability) it was 6.16 µM [falling, partial curve, poor fit]; in experiment [2] (setting [8]) it was 33.2 µM [falling, single point]. Further, the z-score is -0.161 in experiment [2] (setting [4]), -1.3 in experiment [2] (setting [5]) and -0.865 in experiment [2] (setting [7]).

`O=[N+]([O-])c1ccc(Nc2ccccc2-c2ccccc2)c2nonc12`: the AC50 in experiment [1] (setting [3]) was 11 µM [falling, partial curve, poor fit]; in experiment [1] (measured here: PEO4 viability) it was 13.8 µM [falling, partial curve, poor fit]; in experiment [2] (setting [8]), 16.6 µM [falling, partial curve, poor fit]. For the same compound, the z-score in experiment [2] (setting [4]) is -0.0102; in experiment [2] (setting [5]) it was -0.956; in experiment [2] (setting [7]), -1.11.

In the case of `CCC(c1ccc(O)cc1)C(CC)c1ccc(O)cc1` (centres undefined), the AC50 in experiment [1] (setting [3]) was 24.5 µM [falling, single point]; in experiment [1] (measured here: PEO4 viability), 24.5 µM [falling, single point]; in experiment [2] (setting [8]), 20.9 µM [falling, single point]. Moreover, the z-score in experiment [2] (setting [4]) came to 0.51; in experiment [2] (setting [5]) it was 0.91; in experiment [2] (setting [7]), 0.496.

Consider `Cc1cc(C(C)Nc2ccccc2)c2nc(N3CCOCC3)cc(=O)n2c1` (centres undefined), for which the AC50 in experiment [1] (setting [3]) was 27.5 µM [falling, single point]; in experiment [1] (measured here: PEO4 viability), 27.5 µM [falling, partial curve, poor fit]; in experiment [2] (setting [8]), 8.33 µM [falling, partial curve]. In addition, the z-score is -2.09 in experiment [2] (setting [4]), -0.684 in experiment [2] (setting [5]) and 0.222 in experiment [2] (setting [7]).

For `Clc1ccc(COC(Cn2ccnc2)c2ccc(Cl)cc2Cl)cc1` (centres undefined), the AC50 in experiment [1] (setting [3]) was 13.8 µM [falling, partial curve]; in experiment [1] (measured here: PEO4 viability), 19.5 µM [falling, partial curve]; in experiment [2] (setting [6]) it was 37.2 µM [falling, single point]. The z-score in experiment [2] (setting [4]) was -0.118; in experiment [2] (setting [5]), 0.178; in experiment [2] (setting [7]), -0.0366.

As to `O=C1CSC(=O)N1C(CCc1ccncc1)COc1ccc(-c2cccc([N+](=O)[O-])c2)cc1` (centres undefined), the half-maximal activity concentration (AC50) in experiment [1] (setting [3]) is 2.19 µM [falling, full curve, poor fit]; in experiment [1] (measured here: PEO4 viability), 2.75 µM [falling, full curve, poor fit]; in experiment [2] (setting [6]) it was 7.43 µM [falling, full curve]; in experiment [2] (setting [8]) it was 33.2 µM [falling, single point]. The z-score in experiment [2] (setting [4]) was 1.19; in experiment [2] (setting [5]), -0.394; in experiment [2] (setting [7]) it was -0.344.

`O=C(Nc1cccnc1)N1CCC(Cc2cccc(Oc3ccc(C(F)(F)F)cn3)c2)CC1`: the AC50 in experiment [1] (setting [3]) is 2.19 µM [falling, full curve]; in experiment [1] (measured here: PEO4 viability), 6.92 µM [falling, partial curve]; in experiment [2] (setting [6]), 14.8 µM [falling, partial curve, poor fit]; in experiment [2] (setting [8]), 20.9 µM [falling, partial curve, poor fit]. Moreover, the z-score was 0.333 in experiment [2] (setting [4]), -0.102 in experiment [2] (setting [5]) and 0.605 in experiment [2] (setting [7]).

Consider `CCc1cc(-c2n[nH]c(C)c2-c2ccc3c(c2)OCCO3)c(O)cc1O`, for which the AC50 in experiment [1] (setting [3]) was 6.92 µM [falling, partial curve]; in experiment [1] (measured here: PEO4 viability) it was 15.5 µM [falling, partial curve, poor fit]; in experiment [2] (setting [6]), 16.6 µM [falling, partial curve]; in experiment [2] (setting [8]), 7.43 µM [falling, full curve]. For the same compound, the z-score in experiment [2] (setting [4]) is 0.28; in experiment [2] (setting [5]) it was -2.63; in experiment [2] (setting [7]) it was 0.0614.

With `CN(C)Cc1c(C(=O)NCCOc2ccc(C(=O)NO)cc2)oc2ccccc12`, the AC50 in experiment [1] (setting [3]) was 0.871 µM [falling, full curve]; in experiment [1] (measured here: PEO4 viability), 1.1 µM [falling, full curve]; in experiment [2] (setting [6]), 2.96 µM [falling, full curve]; in experiment [2] (setting [8]), 5.9 µM [falling, partial curve]. The figures for the z-score in experiment [2] (setting [4]), in experiment [2] (setting [5]) and in experiment [2] (setting [7]) were -0.676, -3.69 and -0.378, respectively.

Turning to `CC[C@@]1(O)C[C@H](O[C@H]2C[C@H](N(C)C)[C@H](O[C@H]3C[C@H](O)[C@H](O[C@H]4CCC(=O)[C@H](C)O4)[C@H](C)O3)[C@H](C)O2)c2c(cc3c(c2O)C(=O)c2c(O)cccc2C3=O)[C@@H]1C(=O)OC`, the concentration at half-maximal activity (AC50) in experiment [1] (setting [3]) was 13.8 µM [falling, partial curve, poor fit]; in experiment [1] (measured here: PEO4 viability), 15.5 µM [falling, partial curve, poor fit]; in experiment [2] (setting [6]), 0.59 µM [falling, full curve]; in experiment [2] (setting [8]), 0.187 µM [falling, full curve]. Further, the z-score in experiment [2] (setting [4]) is -1.21; in experiment [2] (setting [5]), -0.742; in experiment [2] (setting [7]), -1.21.

Consider `O=C(CCCCCCC(=O)Nc1cccnc1)NO`, for which the AC50 is 13.8 µM [falling, partial curve] in experiment [1] (setting [3]); 19.5 µM [falling, partial curve] in experiment [1] (measured here: PEO4 viability); 20.9 µM [falling, partial curve] in experiment [2] (setting [6]); 26.4 µM [falling, single point] in experiment [2] (setting [8]). Further, the z-score is -0.404 in experiment [2] (setting [4]), 0.0317 in experiment [2] (setting [5]) and 0.25 in experiment [2] (setting [7]).
